Source: PMC4336329 (PLoS ONE, 2015)
Out of some 310,000 compounds screened, about 2,200 (0.71%) showed an effect of 50% or more. The effect is printed as a negative number. Some of the results follow.

biological target: human ether-à-go-go-related gene (hERG) potassium channel (human, UniProt Q12809); assay: primary screen, population patch clamp on CHO cells stably expressing hERG
Sequence (Q12809 whole entry, looked up): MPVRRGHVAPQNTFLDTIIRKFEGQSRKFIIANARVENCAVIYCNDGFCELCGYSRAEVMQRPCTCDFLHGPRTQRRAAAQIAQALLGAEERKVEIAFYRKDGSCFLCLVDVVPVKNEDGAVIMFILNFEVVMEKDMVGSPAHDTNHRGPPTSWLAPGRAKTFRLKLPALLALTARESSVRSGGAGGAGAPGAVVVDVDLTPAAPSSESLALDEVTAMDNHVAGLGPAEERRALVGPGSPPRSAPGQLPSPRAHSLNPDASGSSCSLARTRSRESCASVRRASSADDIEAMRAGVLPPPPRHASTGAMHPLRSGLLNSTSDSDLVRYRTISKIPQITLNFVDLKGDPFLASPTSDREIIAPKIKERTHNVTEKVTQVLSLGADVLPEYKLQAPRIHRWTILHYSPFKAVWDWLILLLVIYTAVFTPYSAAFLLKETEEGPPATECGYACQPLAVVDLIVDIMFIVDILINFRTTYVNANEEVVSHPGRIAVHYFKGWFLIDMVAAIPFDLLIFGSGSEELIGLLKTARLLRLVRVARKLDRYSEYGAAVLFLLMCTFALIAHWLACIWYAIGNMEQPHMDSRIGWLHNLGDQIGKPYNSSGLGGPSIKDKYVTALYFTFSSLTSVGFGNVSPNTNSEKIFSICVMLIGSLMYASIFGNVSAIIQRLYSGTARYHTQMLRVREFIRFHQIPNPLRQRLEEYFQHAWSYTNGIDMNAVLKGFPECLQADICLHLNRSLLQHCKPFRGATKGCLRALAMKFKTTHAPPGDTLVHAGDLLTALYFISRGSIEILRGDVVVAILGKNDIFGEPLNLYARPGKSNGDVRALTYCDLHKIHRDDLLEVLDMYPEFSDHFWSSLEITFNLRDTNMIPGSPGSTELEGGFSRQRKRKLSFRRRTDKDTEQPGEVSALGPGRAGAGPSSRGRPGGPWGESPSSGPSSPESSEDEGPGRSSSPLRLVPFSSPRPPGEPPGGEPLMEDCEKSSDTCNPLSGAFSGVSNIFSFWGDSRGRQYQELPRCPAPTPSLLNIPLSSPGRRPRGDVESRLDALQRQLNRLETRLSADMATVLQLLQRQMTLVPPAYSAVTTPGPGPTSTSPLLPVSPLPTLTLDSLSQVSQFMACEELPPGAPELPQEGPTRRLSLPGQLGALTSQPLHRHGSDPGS

Compound	hERG current change (%, negative = inhibition) at 1uM
Cn1nc(C(=O)NCC2COc3ccccc3O2)c2ccccc2c1=O (centres unmarked)	1.44%
CCOc1ccc2nc(SCC(=O)N3CCN(C(=O)c4ccco4)CC3)sc2c1	-24.9%
Cc1csc(NC(=O)CCc2nc3ccccc3s2)n1	12.5%
CC(C)(C)c1nc(SCC(=O)Nc2nc3c(s2)CCCC3)c2ccccc2n1	16.9%
CCc1ccc2c(c1)C(c1ccncc1)=NNC(c1ccccc1)=N2	12%
O=C(COc1ccccc1)Nc1ccc(N2CCCCC2)cc1	12.7%
Cc1oc2ccccc2c1CC(=O)NCCCN(C)C	10.4%
O=C(NCc1ccco1)C1CC(=O)N(c2ccc(O)cc2)C1 (centres unmarked)	-7.17%
Cc1ccc(-n2nnnc2SCC(=O)NC(=O)Nc2ccc3c(c2)OCCO3)cc1	24.1%
Clc1ncccc1-c1nnn(-c2ccccc2Br)n1	9.65%
O=C(O)CC(O)(CC(=O)O)C(=O)O	8.67%
COCc1c(C(=O)N/N=C\c2cccs2)nnn1-c1nonc1N	13.4%
COc1ccc(Br)c(C(=O)OCc2cc(=O)oc3cc(C)ccc23)c1	10.9%
O=c1onc(-c2ccccc2)c2ccccc12	11.6%
CC(C)n1ncc2c(C(=O)O)cc(C3CC3)nc21	4.21%
C/C(=C\C(=O)c1ccc(Cl)s1)N(C)C	13.7%
C=CCOC(=O)C1=C(C)OC(N)=C(C#N)C12C(=O)N(CN1CCOCC1)c1ccccc12 (centres unmarked)	2.82%
CC(C)(C)c1cc(NCCCn2ccnc2)n2ncc(-c3ccc(Cl)cc3)c2n1	10.6%
Cc1ccc(NC(=O)[C@@]2(CC(=O)O)CC(/C=C/c3ccccc3)=NO2)c(C)c1	5.41%
O=C(c1cccc(Oc2ccc([N+](=O)[O-])cc2)c1)N1CCOCC1	1.31%
O=[N+]([O-])c1ccccc1S(=O)(=O)Oc1ccccc1/C=N/n1cnnc1	0.974%
O=C(NCc1ccccc1Cl)C(=O)NCC1CCCN1S(=O)(=O)c1cccs1 (centres unmarked)	17.8%

Compound	hERG current change (%, negative = inhibition) at 1uM
Cc1ccc(S(=O)(=O)CCC(=O)OCC(=O)N2c3ccccc3CC2C)cc1 (centres unmarked)	11.9%
O=C(Cn1nnc(-c2ccc(Cl)cc2)n1)NC1CC2CCC1C2 (centres unmarked)	8.69%
Cc1cccc(CCNC(=O)CCS(=O)(=O)c2cc3c(cc2Cl)NC(=O)CO3)c1	10.1%
Cc1cc2cccc(C)c2nc1SCC(=O)NCC1CCCO1 (centres unmarked)	10.4%
COc1ccc([N+](=O)[O-])cc1COc1cc(C)cc2oc(=O)cc(-c3ccccc3)c12	3.54%
CC(C)C[C@H](NC(=O)OC(C)(C)C)C(=O)N[C@@H](CO)[C@H](O)[C@@H]1C[C@@H]1C(=O)N(C)C	10.3%
Cc1[nH]c2ccc(C(=O)NCCN3CCCCCC3)cc2c1C	8.02%
O=C(NCc1ccco1)c1cccc(S(=O)(=O)N2CCc3ccccc32)c1	1.7%
CSc1ccc(CN(C)C(=O)CNC(=O)c2ccc3c(c2)OCO3)cc1	5.28%
Cc1ccc(OCCn2c(CCNC(=O)C(C)C)nc3ccccc32)cc1	-4.8%
CCc1ccc(C2NC(=S)NC3=C2C(=O)CCC3)cc1 (centres unmarked)	17%
CN(C)N1C(N)=C(C#N)C(c2cccc3ccccc23)C2=C1CC(c1ccccc1)CC2=O (centres unmarked)	7.76%
Cc1nc2ccc(N)cc2s1	2.1%
O=c1[nH]c(C2CCN(S(=O)(=O)c3ccc(S(=O)(=O)NC4CC4)cc3)CC2)nc2c1nnn2Cc1ccccc1	16.1%
O=C(CSc1nccc(=O)[nH]1)Nc1ccc(N2CCOCC2)c(Cl)c1	12.3%
O=C(c1cncc(Br)c1)N1CCN(S(=O)(=O)c2ccc(Cl)cc2)CC1	0.19%
CCn1c(SCC(=O)NCc2cccs2)nc2c1c(=O)n(C)c(=O)n2C	-19.9%
COc1cc(/C=C/c2ccc(O)cc2)cc(OC)c1	1.91%
CCCCN(C(=O)c1cccc(S(=O)(=O)N2CCN(Cc3ccccc3)CC2)c1)c1ccccc1	12.5%
O=C(COC(=O)c1ccc(Br)cc1)Nc1ccccc1Br	15.1%
Nc1n[nH]c(N)c1N=Nc1cccc(F)c1	7.5%
CC(C)(C)NC(=O)NC(=O)CN1CCN(c2ncc(C(F)(F)F)cc2Cl)CC1	13%
